{"source": "patent US11827699", "about": "(dated 2023)", "binders": {"B1": {"name": "VH3/L(WT)-IgG1-F1022 (antibody)", "chain 1": "QVQLQESGPGLVKPSETLSLTCAVSGHSISHDHAWSWVRQPPGEGLEWIGFISYSGITNYNPSLQGRVTISRDNSKNTLYLQMNSLRAEDTAVYYCARSLARTTAMDYWGEGTLVTVSS[gap - human IgG1 constant region with K326D L328Y (EU numbers)]", "chain 2": "DIQMTQSPSSLSASVGDRVTITCRASQDISSYLNWYQQKPGKAPKLLIYYTSRLHSGVPSRFSGSGSGTDFTFTISSLQPEDIATYYCQQGNTLPYTFGQGTKVEIKRTVAAPSVFIFPPSDEQLKSGTASVVCLLNNFYPREAKVQWKVDNALQSGNSQESVTEQDSKDSTYSLSSTLTLSKADYEKHKVYACEVTHQGLSSPVTKSFNRGEC"}}, "target": "T1, mouse FcγRIIb (mouse, UniProt P08101)", "T1 chain": "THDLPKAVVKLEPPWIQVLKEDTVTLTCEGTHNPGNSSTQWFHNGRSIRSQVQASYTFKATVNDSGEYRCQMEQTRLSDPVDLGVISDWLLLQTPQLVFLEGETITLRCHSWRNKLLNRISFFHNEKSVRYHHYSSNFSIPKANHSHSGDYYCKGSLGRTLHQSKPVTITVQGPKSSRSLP", "assay": "SPR, pH 7.4"}
{"binder": "B1", "values": [{"measurement": "Kd", "value": 10, "unit": "nM"}]}
